Several values for one entry are separate records, joined by “and”; a condition that tells them apart may be missing. Equal values may be shown once. The whole screen tested about 420,000 compounds, of which about 50,000 (12%) were called active. Inconclusive means that the source gave no clear call. Such entries were picked first, then a sample of the others. Calls come from the whole dose curve; as a rule, active = well fitted inhibition curve with a large enough effect; inconclusive = small, poorly fitted or top-dose-only effect; inactive = flat fitted curve, though single readings scatter. No potency is given beside an inconclusive call; the fits are too rough.
assay: qHTS for Inhibitors of human tyrosyl-DNA phosphodiesterase 1 (TDP1): qHTS in cells in presence of CPT; settings: chicken DT40 Tdp1-/-;hTDP1 cells + 20 nM CPT, ATP luminescence, 48 h; activity change, negative = growth inhibition: at 46.2 µM (top of the series) unless noted; note: nearly all actives have a fitted effect of over 55% in size
Summary of the method: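 Cell growth measured by CellTiter-Glo luminescence after a minimum 48 h, 37 C compound exposure with 20 nM CPT in Tdp1-knockout DT40 cells stably expressing hTDP1, seeded 400/well; qHTS titration format.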
% is set by controls: 0 for no effect and ±100 for the full control effect; potency is the fitted concentration of half-maximal effect; tags give direction and shape of the fitted curve.

| SMILES | Potency | activity change, negative = growth inhibition |
| --- | --- | --- |
| COCCOC(=O)c1c(C)oc2ccc(NS(=O)(=O)c3ccc(F)cc3)cc12 | inconclusive [inhibitor, single point] | – |
| Cn1c(=O)c2c(nc(NCCc3ccccc3)n2Cc2ccc(F)cc2)n(C)c1=O | active: 3.66 µM | – |
| Cc1ccc(S(=O)(=O)NNC(=O)c2csnn2)cc1 | inactive | – |
| CCC(c1nnnn1Cc1ccco1)N(CCN1CCOCC1)Cc1cc2cc(C)ccc2[nH]c1=O (stereo not drawn) | inconclusive [inhibitor, partial curve, poor fit] | – |
| CCN1CCN(c2oc(COc3ccc(-c4ccccc4)cc3)nc2C#N)CC1 | inconclusive [inhibitor, single point] | – |
| CN(c1cccc(NC(=O)Nc2cccc(Cl)c2)c1)S(C)(=O)=O | inconclusive [inhibitor, single point] | – |
| CCCCNCc1cc(Cl)c(OCCC)c(OCC)c1 | inconclusive [inhibitor, single point] | – |
| CCN(CC)S(=O)(=O)c1ccc(CNC(=O)CN2C(=O)NC3(CCc4ccccc43)C2=O)cc1 (stereo not drawn) | inconclusive [inhibitor, single point] | – |
| COc1ccc(Cl)cc1N(C)C(=O)CCc1nc(-c2ccc(C)cc2)no1 | active: 18.4 µM | – |
| CCC(NC(=O)c1cc(COc2cc(C)c(Cl)c(C)c2)on1)c1ccncc1 (stereo not drawn) | inconclusive [inhibitor, single point] | – |
| Cc1cccc(C2(c3cccc(C)c3)OC(=O)c3ccccc32)c1 | inconclusive [inhibitor, single point] | – |
| CN1CCN(S(=O)(=O)c2ccc(N3CCN(S(=O)(=O)c4cccs4)CC3)nc2)CC1 | inconclusive [inhibitor, single point] | – |
| CCCSc1nc(C)cc(C)c1C(N)=O | inactive | – |
| Cc1ccc(C(=O)Nc2cccc3[nH]c(C(F)(F)F)nc23)cc1 | inconclusive [inhibitor, single point] | – |
| O=C(C1CCCN(c2nnc(-n3cccc3)s2)C1)N1CCN(c2ccccc2)CC1 (stereo not drawn) | inconclusive [inhibitor, partial curve, poor fit] | – |
| CCCCc1ccc(NC(=O)CSc2nc(=O)[nH]c3c2CCCC3)cc1 | inconclusive [inhibitor, single point] | – |
| O=C(COc1ccc(Cl)cc1)N(Cc1ccccc1)c1nc(-c2ccccc2)cs1 | inconclusive [inhibitor, single point] | – |
| CC(C)C[C@H]1CN([C@@H](CC(C)C)CN2CCC[C@H]2CN2C(=O)C(=O)NC[C@@H]2Cc2ccc(O)cc2)C(=O)C(=O)N1CCc1ccccc1 | inconclusive [inhibitor, single point] | – |
| O=C(CSc1nc2c([nH]c3ccccc32)c(=O)n1-c1ccccc1F)Nc1cccc(C(F)(F)F)c1 | active: 20.6 µM | – |
| Cc1cc(Oc2ccc(Cl)cc2)nc(-c2ccccn2)n1 | active: 5.17 µM | – |
| CCc1ccc(NC(=O)C2C3CCC(O3)C2C(=O)O)cc1 (stereo not drawn) | inactive | – |
| COc1cccc(Cn2nnc(C(=O)NCCc3ccc(Cl)cc3)c2N)c1 | inconclusive [inhibitor, partial curve] | – |
| CCN(CC)C(=O)[C@H]1C[C@H](CC(=O)NCCCn2ccnc2)C(=O)N2CCc3c([nH]c4cc(CCC(=O)N(C)C)ccc34)[C@]12C | inactive | – |

| SMILES | Potency | activity change, negative = growth inhibition |
| --- | --- | --- |
| Cn1nnnc1SCC(=O)N1CCN(C(c2ccccc2)c2ccccc2)CC1 | inconclusive [inhibitor, single point] | – |
| CCOc1ccc(S(=O)(=O)N2CCN(Cc3nc4ccc(C)cc4o3)CC2)cc1 | active: 18.4 µM | – |
| O=C(C[n+]1ccncc1)c1ccc(Br)cc1 | inconclusive [inhibitor, single point] | – |
| O=C(Nc1cccc(C(=O)OCc2cc(=O)n3nc(C4CC4)sc3n2)c1)c1cccc(Cl)c1 | active: 11.6 µM | – |
| COc1ccc(Nc2oc(/C=C/c3ccccc3OC)nc2C#N)cc1 | inconclusive [inhibitor, single point] | – |
| Cc1ccc(C(C)C)cc1OCC(=O)N1CCN(C(=O)c2ccco2)CC1 | inactive | – |
| O=C1CCN(CCc2ccccc2)CCN1[C@H](COc1ccccc1)Cc1ccccc1 | active: 11.2 µM and active: 29.1 µM | – |
| COc1cccc(C2c3[nH]c4ccccc4c3CCN2Cc2cccn2-c2ncccn2)c1 (stereo not drawn) | inconclusive [inhibitor, single point] | – |
| Cc1ccc(C)c(NC(=O)CSc2ccc3nc(-c4ccccc4)cn3n2)c1 | inconclusive [inhibitor, partial curve] | – |
| CCOc1ccc(CCNC(=O)Cn2c(-c3cccs3)cc3ccccc32)cc1OCC | inconclusive [inhibitor, single point] | – |
| CCNS(=O)(=O)c1ccc(CCC(=O)N2CCN(c3ccccc3F)CC2)cc1 | inactive | – |
| COC(=O)CCN(c1ccccc1)C(CNS(=O)(=O)c1ccccc1)c1ccccc1 (stereo not drawn) | inconclusive [inhibitor, partial curve] | – |
| CCOC(=O)c1cnc(SC)nc1Nc1cccc2ccccc12 | inconclusive [inhibitor, partial curve, poor fit] | – |
| C/C(=N\NC(=O)CSCc1cccc(Br)c1)c1ccc([N+](=O)[O-])cc1 | inactive | – |
| CC1(C)C(CC(=O)O)CC1C(=O)O (stereo not drawn) | inactive | – |
| COc1cccc(-c2ncc3ccccc3c2COC(=O)c2ccco2)c1 | inconclusive [inhibitor, single point] | – |
| Cc1ccccc1OCC(O)CN1CCN(CCN2C(=O)c3cccc4cccc(c34)C2=O)CC1 (stereo not drawn) | inconclusive [inhibitor, single point] | – |
| O=C(Nc1ccccc1Br)c1cc(CN2CCCC2)on1 | inactive | – |
| Cc1cc(C)c(S(=O)(=O)N2CC=C(c3ccccc3)CC2)c(C)c1 | inconclusive [inhibitor, single point] | – |
| CCN1CCN(C2=NC(=O)/C(=C/c3ccc(C)o3)S2)CC1 | inconclusive [inhibitor, partial curve, poor fit] | – |
| Cc1cc2nc(-c3ccc(NC(=O)c4cccnc4)cc3)oc2cc1C | inconclusive [inhibitor, partial curve] | – |
| Cc1ccc(C)c(Nc2nc3ccccc3n3cnnc23)c1 | inactive | – |
| Cc1cc(NS(=O)(=O)c2ccc(NC(=O)Cc3ccc(Cl)c(Cl)c3)cc2)no1 | inactive | – |

| SMILES | Potency | activity change, negative = growth inhibition |
| --- | --- | --- |
| Cc1nc2cc(-c3cccc(F)c3)nn2c(C)c1CCC(=O)NC(C)c1ccccc1 (stereo not drawn) | inconclusive [inhibitor, single point] | – |
| N#CCC(=O)N/N=C/c1cn(Cc2ccc(Cl)c(Cl)c2)c2ccccc12 | inactive | – |
| CC1CCC(NC(=O)CSc2ccc(S(=O)(=O)N(C)C)cn2)CC1 (stereo not drawn) | inconclusive [inhibitor, single point] | – |
| COc1ccc(N=C2SC(CC(=O)Nc3ccccc3)C(=O)N2CCc2ccccn2)cc1 (stereo not drawn) | inconclusive [inhibitor, single point] | – |
| Cc1cc(=O)[nH]c(SCc2cc(Cl)ccc2OC(F)F)n1 | – | inconclusive: -31.4% [inhibitor] |
| COc1ccc(S(=O)(=O)N2CCCC(C(=O)NC3CC3)C2)cc1OC (stereo not drawn) | inactive | – |
| CCSc1nnc(NC(=O)c2cc(=O)c3cc(C)ccc3o2)s1 | inactive | – |
| O=C(CSc1oc(-c2ccc(F)cc2)nc1S(=O)(=O)c1ccccc1)NC1CCCCC1 | inconclusive [inhibitor, single point] | – |
| O=C(Nc1ccc(Oc2cccnc2)cc1)C1CCN(Cc2ccccc2F)CC1 | inconclusive [inhibitor, single point] | – |
| O=C(Nc1ccc(C(=O)N2CCCCC2)cc1)c1cccc([N+](=O)[O-])c1 | inconclusive [inhibitor, partial curve] | – |
| Cc1ccc(S(=O)(=O)N(C)CC(=O)N(CC(C)C)C2CCS(=O)(=O)C2)cc1 (stereo not drawn) | inactive | – |
| Brc1ccc2c(c1)C(c1ccc(N3CCOCC3)cc1)=NNC(c1cccs1)=N2 | inconclusive [inhibitor, single point] | – |
| COC(=O)c1c(NC(=O)C2c3ccccc3Oc3ccccc32)sc2c1CCC(C(C)(C)C)C2 (stereo not drawn) | inconclusive [inhibitor, partial curve] | – |
| CCOC(=O)N1C(=O)[C@](c2ccc(Cl)cc2)(C(C)C)N1C(=O)OCC | active: 18.4 µM | – |
| Fc1ccc(Nc2ccnc(-c3ccc4c(c3)OCO4)n2)cc1 | inconclusive [inhibitor, single point] | – |
| Cn1c(=O)c2[nH]c(CN3CCN(Cc4ccccc4)CC3)nc2n(C)c1=O | inactive | – |
| COc1cc2c(cc1NC(=O)c1ccccc1C)n(C)c(=O)n2C | inconclusive [inhibitor, single point] | – |
| CCSc1nnc(NC(=O)[C@@H](NC(=O)c2ccc(C(C)(C)C)cc2)C(C)C)s1 | active: 25.9 µM | – |
| COc1ccc(CN(C(=O)CSc2nnc(-c3ccccc3F)o2)c2ccc(F)cc2)cc1 | active: 18.4 µM | – |
| Cc1c(C(C)(C)O)[nH]c2ccc(C(F)(F)F)cc12 | inconclusive [inhibitor, single point] | – |
| COc1cccc(-c2csc(N3CCN(C(=S)Nc4ccccc4)CC3)n2)c1 | inconclusive [inhibitor, single point] | – |
| COc1cccc(-c2cc(C(F)(F)F)n3ncc(C(=O)N4CCc5ccccc5C4)c3n2)c1 | active: 16.4 µM | – |

Reference: PubChem BioAssay AID686979 (National Center for Advancing Translational Sciences (NCATS), 2013)
